Results taken from PubChem BioAssay AID886 (National Center for Advancing Translational Sciences (NCATS), 2007).
Several values for one entry are separate records, joined by “and”; a condition that tells them apart may be missing. Identical values can stand only once. Among all 73,000 compounds or so, about 2,500 (3.4%) were called active. Inconclusive results, whose numbers are uncertain, are shown with a selection of clear calls. The call rests on the fitted dose curve; in most records, active means well fitted inhibition curve with a large enough effect; inconclusive means small, poorly fitted or top-dose-only effect; inactive means no such curve, though single readings can be large or run the other way. Potencies beside an inconclusive call are fits to weak or partial responses and may not hold up.
Further: nearly all actives have a fitted effect of over 60% in size.
On the % scale 0 is the no-effect control and ±100 the full control effect; potency means the concentration at half of the fitted maximal effect; tags describe the fitted curve by direction and shape.

The compounds below were run against 3-hydroxyacyl-CoA dehydrogenase type-2 (Homo sapiens) (UniProt Q99714) (assay: qHTS Assay for Inhibitors of HADH2 (Hydroxyacyl-Coenzyme A Dehydrogenase, Type II)). Conditions: recombinant HADH2, NADH fluorescence, beta-hydroxybutyryl-CoA; activity change, negative = inhibition: at 57.1 µM (top of the series).
Chain of UniProt Q99714 (Q99714 whole entry, looked up): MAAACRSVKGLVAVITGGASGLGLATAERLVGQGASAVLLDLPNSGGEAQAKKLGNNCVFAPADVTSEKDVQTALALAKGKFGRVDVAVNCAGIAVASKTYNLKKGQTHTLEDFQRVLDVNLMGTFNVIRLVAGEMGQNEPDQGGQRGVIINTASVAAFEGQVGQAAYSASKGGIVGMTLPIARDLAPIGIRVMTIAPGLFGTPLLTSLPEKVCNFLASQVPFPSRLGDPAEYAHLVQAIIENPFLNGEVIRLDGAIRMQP
Chain of UniProt Q99714 (Q99714 whole entry, looked up): as above
Summary of the method: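 Buffer 100 mM Tris-HCl pH 9.0/0.01% Tween-20; HADH2 20 nM; NAD+ 1 mM; beta-hydroxybutyryl-CoA 90 uM (all final). 15 min cpd preincubation, RT.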
O=C1c2ccccc2C(=O)c2c(NC3CCCCC3)ccc(Nc3ccc(S(=O)(=O)O)cc3)c21 was tested, and the Potency was active: 3.16 µM. COC(=O)[C@@H](N)Cc1ccc(O)c(O)c1 was tested, and the Potency was active: 0.0631 µM. Cn1c(SCCSc2nnc(-c3ccccc3)n2C)nnc1-c1ccccc1 was tested, and the “activity change, negative = inhibition” value was inactive: -7.17%. In the case of COc1ccc2[nH]c(C)c(CCN3C(=O)C4CC=CCC4C3=O)c2c1 (configuration not stated), the “activity change, negative = inhibition” value is reported as inactive: -11.8%. COc1cccc2c1nc(C)c1cc(C)oc12 was tested, and the Potency was inconclusive: 39.8 µM [inhibitor, single point]. In the case of COc1ccc(-c2oc3ncnc(NCCCN4CCOCC4)c3c2-c2ccc(OC)cc2)cc1, the Potency is reported as inconclusive: 31.6 µM [inhibitor, single point]. COC(=O)N1CCC2(CC1)CN(c1ccncc1)C2 was tested, and the “activity change, negative = inhibition” value was inactive: 7.33%. With Cc1ccccc1NC(=O)CSc1nc(N)c(C#N)c(-c2cccs2)c1C#N the Potency was inconclusive: 6.31 µM [inhibitor, single point]. With Oc1ccc2ccccc2c1Cc1c(O)ccc2ccccc12 the Potency was active: 3.16 µM. With O=C(c1ccco1)N1CCN(c2c(-c3ccccc3)c3cc(Cl)ccc3[nH]c2=O)CC1 the Potency was inconclusive: 31.6 µM [inhibitor, single point]. O=C(NCCC1=CCCCC1)C1CCN(S(=O)(=O)c2cccc3cccnc23)CC1 was tested, and the Potency was inconclusive: 3.98 µM [inhibitor, single point]. For Oc1ccc([C@@H]2CNCCc3c2cc(O)c(O)c3Cl)cc1, the Potency was active: 2 µM and active: 100 nM. Cc1occc1-c1nnc(SCC(=O)c2c[nH]c3ccccc23)n1C was tested, and the Potency was inconclusive: 31.6 µM [inhibitor, single point]. COC(=O)[C@@]1(Cc2ccc(OC)cc2)[C@H]2c3cc(C(=O)N(C)C)n(Cc4ccc(S(C)(=O)=O)cc4)c3C[C@H]2CN1C(=O)c1ccccc1 was tested, and the Potency was inconclusive: 7.94 µM [inhibitor, single point]. In the case of Cn1c(=O)c(-c2cccs2)nc2cncnc21, the Potency is reported as active: 10 µM. CCn1c2ccccc2c2nc3cc(S(=O)(=O)N4CCOCC4)ccc3nc21 was tested, and the Potency was active: 0.0631 µM. In the case of CCN(CC)CCNC(=O)CCCCn1c(=S)[nH]c2c([nH]c3ccc(OC)cc32)c1=O, the Potency is reported as inconclusive: 3.98 µM [inhibitor, full curve]. In the case of COc1cc(CCC(=O)OCC(=O)Nc2ncc(Cl)cc2Cl)cc(OC)c1OC, the “activity change, negative = inhibition” value is reported as inactive: 9.75%. CCC(CC)C(=O)NCCc1cc2cc(C)c(C)cc2[nH]c1=O was tested, and the Potency was inconclusive: 39.8 µM [inhibitor, single point]. For CCN(CC)S(=O)(=O)c1ccc(C(=O)NCc2n[nH]c(=S)n2-c2ccccc2OC)cc1, the Potency was inconclusive: 25.1 µM [inhibitor, single point]. CC(NC(=O)C1CCN(c2nnc(-n3cccc3)s2)CC1)C12CC3CC(CC(C3)C1)C2 (configuration not stated) was tested, and the “activity change, negative = inhibition” value was inactive: 5.8%. In the case of COc1nc2cc(C)ccc2cc1-c1noc(-c2cccnc2)n1, the “activity change, negative = inhibition” value is reported as inactive: -3.4%. In the case of Oc1c(Cl)cc(Cl)c(Cl)c1Cl, the Potency is reported as inconclusive: 31.6 µM [inhibitor, partial curve, poor fit]. For COc1cc(/C=N/n2cnnc2)ccc1OCC(=O)N1CCOCC1, the Potency was inconclusive: 31.6 µM [inhibitor, single point]. For CC(=O)c1cc2cc(O)ccc2o1, the Potency was active: 3.16 µM. In the case of CN1C(C(=O)Nc2ccccn2)=C(O)c2ccccc2S1(=O)=O, the Potency is reported as “inactive”. With COc1ccc(N2CSC3=C(C#N)C(c4cccs4)CC(=O)N3C2)cc1 (configuration not stated) the Potency was inconclusive: 0.631 µM [inhibitor, full curve]. For COC(=O)c1cn(CC(=O)NCc2ccco2)c2ccccc12, the Potency was inconclusive: 31.6 µM [inhibitor, single point]. In the case of CC(=O)C1=C(C)NC(SCC(N)=O)=C(C#N)C1c1cccnc1 (configuration not stated), the Potency is reported as inconclusive: 31.6 µM [inhibitor, single point]. For OCCCNC(c1ccccc1)c1ccc(O)cc1 (configuration not stated), the Potency was inconclusive: 15.8 µM [inhibitor, partial curve]. S=c1[nH]c2ccc(Cl)cc2[nH]1 was tested, and the Potency was active: 3.16 µM. CC(NS(=O)(=O)c1ccccc1)C(N)=O (configuration not stated) was tested, and the Potency was inconclusive: 7.94 µM [inhibitor, single point]. For CCCC1C2CN(C(C)C)CC=C2C(C#N)=C(N)C1(C#N)C#N (configuration not stated), the Potency was inconclusive: 31.6 µM [inhibitor, single point]. With COc1cccc(OC)c1C(=O)N1CCN(c2ccccn2)CC1 the Potency was inconclusive: 39.8 µM [inhibitor, single point]. With CCCc1cc2c(=O)c(-c3ccccn3)c(C)oc2cc1O the Potency was active: 20 µM. In the case of COc1cc(/C=C(\C#N)C(=O)c2ccc(O)c(O)c2)cc(I)c1O, the Potency is reported as active: 2.51 µM. With COc1ncc2nc(-c3cn(C)c4ccccc34)c(=O)n(C[C@H]3CCCO3)c2n1 the “activity change, negative = inhibition” value was inactive: 1.18%. For CCn1c(SCC(=O)c2ccc(CNC(C)=O)o2)nnc1-c1cccs1, the Potency was inconclusive: 25.1 µM [inhibitor, single point]. CC(=O)Nc1ccc(N/C=C/C(=O)C(C)(C)C)cc1 was tested, and the Potency was inconclusive: 39.8 µM [inhibitor, single point]. Cc1cc(C(=O)OCC(=O)c2ccc(Br)s2)no1 was tested, and the Potency was inconclusive: 7.94 µM [inhibitor, single point]. For O=C(Nc1sc2c(c1C(=O)NC1CC1)CCCCCC2)c1ccco1, the Potency was inconclusive: 10 µM [inhibitor, partial curve]. For Cc1nc2nc(C)c(CCC(=O)N3CCN(c4ccccn4)CC3)c(C)n2n1, the “activity change, negative = inhibition” value was inactive: -8.29%. O=C(c1ccco1)N1CCN(c2ncnc3c(-c4ccccc4)nsc23)CC1 was tested, and the Potency was inconclusive: 39.8 µM [inhibitor, single point]. CCCCn1c(SCC(=O)c2ccccc2)nc2c1c(=O)[nH]c(=O)n2C was tested, and the Potency was inconclusive: 31.6 µM [inhibitor, single point]. For Cc1cccc2c(=O)cc(C)n(CC(=O)N3CCCCC3)c12, the Potency was inconclusive: 39.8 µM [inhibitor, single point]. With O=C(O)C1CSC(c2ccncc2)N1 (configuration not stated) the Potency was inconclusive: 31.6 µM [inhibitor, single point]. In the case of COc1cc(N)c(Cl)cc1C(=O)CCC1CCN(CCNS(C)(=O)=O)CC1, the “activity change, negative = inhibition” value is reported as inactive: 0.798%.
